According to publication PMC12820563, “FoxP3 forms a head-to-head dimer in vivo and stabilizes its multimerization on adjacent microsatellites”:
This is one part of the list.

The sequences below were run against T1, MBP-FoxP1dN (Mus musculus, UniProt P58462 326-579) (assay: PD-seq (MBP pull-down with sequencing); 20 mM Tris-HCl pH 7.5, 100 mM NaCl, 1.5 mM MgCl2, 0.4 uM protein, 0.1 uM dsDNA library, 30 min, room temperature, amylose pull-down; high values mean tight binding). Conditions: protein: recombinant; tags: His6-MBP; chain copies: 2; dsDNA, one strand shown.
T1 sequence: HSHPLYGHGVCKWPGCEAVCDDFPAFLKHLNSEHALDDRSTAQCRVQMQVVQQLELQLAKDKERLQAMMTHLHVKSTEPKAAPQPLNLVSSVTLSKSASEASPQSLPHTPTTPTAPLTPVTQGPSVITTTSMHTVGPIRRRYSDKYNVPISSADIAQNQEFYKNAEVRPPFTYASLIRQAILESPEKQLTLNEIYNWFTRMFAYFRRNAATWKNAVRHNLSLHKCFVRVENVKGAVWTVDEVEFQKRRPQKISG
Procedure, shortened: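 A fragment of mouse FoxP3 or FoxP1 without its N-terminus, carrying a His6-MBP tag and produced in E. coli, was combined at 0.4 µM with a 0.1 µM degenerate double-stranded DNA library filled in with Klenow. The mixture sat for 30 min at room temperature in Tris pH 7.5 buffer containing NaCl and MgCl2. Protein–DNA complexes were captured on amylose resin, washed three times, and the DNA was freed with proteinase K, barcoded by PCR and sequenced on Illumina. Binding is expressed as reads-per-million enrichment of pull-down over input, with replicates pooled.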

Sequence	binding signal
GATGATTGTTCTCCCAGCTGATGAATTCCATCGGTCGAGTAAACAAATTTTCCTAATCTTTCTGTTCAAGCGCCATCTAC	0.763 RPM ratio (pull-down/input)
GATGATTGTTCTCCCAGCTGATGAATTGTTGCCGTCGAGTAAACAAATTTTCCTAATCTTTCTGTTCAAGCGCCATCTAC	1.3 RPM ratio (pull-down/input)
GATGATTGTTCTCCCAGCTGATGAATTGTCTGCTTCGAGTAAACAAATTTTCCTAATCTTTCTGTTCAAGCGCCATCTAC	0.996 RPM ratio (pull-down/input)
GATGATTGTTCTCCCAGCTGATGAATTAAGTTCCTCGAGTAAACAAATTTTCCTAATCTTTCTGTTCAAGCGCCATCTAC	0.866 RPM ratio (pull-down/input)
GATGATTGTTCTCCCAGCTGATGAATTATCGTTGTCGAGTAAACAAATTTTCCTAATCTTTCTGTTCAAGCGCCATCTAC	1.2 RPM ratio (pull-down/input)
GATGATTGTTCTCCCAGCTGATGAATTCACGCGCTCGAGTAAACAAATTTTCCTAATCTTTCTGTTCAAGCGCCATCTAC	0.992 RPM ratio (pull-down/input)
GATGATTGTTCTCCCAGCTGATGAATTAGCTACATCGAGTAAACAAATTTTCCTAATCTTTCTGTTCAAGCGCCATCTAC	1.1 RPM ratio (pull-down/input)
GATGATTGTTCTCCCAGCTGATGAATTTACCTTGTCGAGTAAACAAATTTTCCTAATCTTTCTGTTCAAGCGCCATCTAC	1.15 RPM ratio (pull-down/input)
GATGATTGTTCTCCCAGCTGATGAATTCCTACTCTCGAGTAAACAAATTTTCCTAATCTTTCTGTTCAAGCGCCATCTAC	0.856 RPM ratio (pull-down/input)
GATGATTGTTCTCCCAGCTGATGAATTTAGGACTTCGAGTAAACAAATTTTCCTAATCTTTCTGTTCAAGCGCCATCTAC	0.86 RPM ratio (pull-down/input)
GATGATTGTTCTCCCAGCTGATGAATTTAGGCGATCGAGTAAACAAATTTTCCTAATCTTTCTGTTCAAGCGCCATCTAC	0.898 RPM ratio (pull-down/input)
GATGATTGTTCTCCCAGCTGATGAATTGTACTGCTCGAGTAAACAAATTTTCCTAATCTTTCTGTTCAAGCGCCATCTAC	0.956 RPM ratio (pull-down/input)
GATGATTGTTCTCCCAGCTGATGAATTCGATCATTCGAGTAAACAAATTTTCCTAATCTTTCTGTTCAAGCGCCATCTAC	0.949 RPM ratio (pull-down/input)
GATGATTGTTCTCCCAGCTGATGAATTAGATTTCTCGAGTAAACAAATTTTCCTAATCTTTCTGTTCAAGCGCCATCTAC	0.85 RPM ratio (pull-down/input)
GATGATTGTTCTCCCAGCTGATGAATTCTCAGGTTCGAGTAAACAAATTTTCCTAATCTTTCTGTTCAAGCGCCATCTAC	0.765 RPM ratio (pull-down/input)
GATGATTGTTCTCCCAGCTGATGAATTCTTAGCATCGAGTAAACAAATTTTCCTAATCTTTCTGTTCAAGCGCCATCTAC	1.22 RPM ratio (pull-down/input)

Sequence	binding signal
GATGATTGTTCTCCCAGCTGATGAATTTACGAATTCGAGTAAACAAATTTTCCTAATCTTTCTGTTCAAGCGCCATCTAC	1.33 RPM ratio (pull-down/input)
GATGATTGTTCTCCCAGCTGATGAATTGGTAAGCTCGAGTAAACAAATTTTCCTAATCTTTCTGTTCAAGCGCCATCTAC	0.946 RPM ratio (pull-down/input)
GATGATTGTTCTCCCAGCTGATGAATTAGTACGCTCGAGTAAACAAATTTTCCTAATCTTTCTGTTCAAGCGCCATCTAC	1.02 RPM ratio (pull-down/input)
GATGATTGTTCTCCCAGCTGATGAATTCGCCCTTTCGAGTAAACAAATTTTCCTAATCTTTCTGTTCAAGCGCCATCTAC	0.83 RPM ratio (pull-down/input)
GATGATTGTTCTCCCAGCTGATGAATTTGTACAATCGAGTAAACAAATTTTCCTAATCTTTCTGTTCAAGCGCCATCTAC	1.46 RPM ratio (pull-down/input)
GATGATTGTTCTCCCAGCTGATGAATTCGTAAACTCGAGTAAACAAATTTTCCTAATCTTTCTGTTCAAGCGCCATCTAC	1.27 RPM ratio (pull-down/input)
GATGATTGTTCTCCCAGCTGATGAATTCCCAGAGTCGAGTAAACAAATTTTCCTAATCTTTCTGTTCAAGCGCCATCTAC	0.738 RPM ratio (pull-down/input)
GATGATTGTTCTCCCAGCTGATGAATTAATACACTCGAGTAAACAAATTTTCCTAATCTTTCTGTTCAAGCGCCATCTAC	1.26 RPM ratio (pull-down/input)
GATGATTGTTCTCCCAGCTGATGAATTCACACTTTCGAGTAAACAAATTTTCCTAATCTTTCTGTTCAAGCGCCATCTAC	0.928 RPM ratio (pull-down/input)
GATGATTGTTCTCCCAGCTGATGAATTGCGGGATTCGAGTAAACAAATTTTCCTAATCTTTCTGTTCAAGCGCCATCTAC	1.03 RPM ratio (pull-down/input)
GATGATTGTTCTCCCAGCTGATGAATTTGTCGCATCGAGTAAACAAATTTTCCTAATCTTTCTGTTCAAGCGCCATCTAC	1.28 RPM ratio (pull-down/input)
GATGATTGTTCTCCCAGCTGATGAATTCAGTCTCTCGAGTAAACAAATTTTCCTAATCTTTCTGTTCAAGCGCCATCTAC	0.769 RPM ratio (pull-down/input)
GATGATTGTTCTCCCAGCTGATGAATTATTAGTTTCGAGTAAACAAATTTTCCTAATCTTTCTGTTCAAGCGCCATCTAC	1.33 RPM ratio (pull-down/input)
GATGATTGTTCTCCCAGCTGATGAATTCCCGTGCTCGAGTAAACAAATTTTCCTAATCTTTCTGTTCAAGCGCCATCTAC	0.768 RPM ratio (pull-down/input)
GATGATTGTTCTCCCAGCTGATGAATTCGACCCCTCGAGTAAACAAATTTTCCTAATCTTTCTGTTCAAGCGCCATCTAC	0.751 RPM ratio (pull-down/input)
